Measurements as given in paper PMC12136788.
The list shows a part of the results.

B1: ENSG00000136451:be:win_2051|3pUTR|ENSG00000136451|bound_else_gene|NA|bound_elsewhere_windowed (ssRNA)
RNA: GGGAGUUCUACAGUCCGACGAUCUUGUCAUAAUAAAAUGCAUUUCAGAGAAUAUGCAUUUUACCUUUGGGAAUAUGUUAAUUUCAGGCAGCAUUCCCUAUGGGAAAGGUGAUACCAGCUCUGAUAUGCAAAGCAUAUGAUAAUCAACAGAGGAUUGAGCAUCA
B2: ENSG00000064726:stop:overlap|stop_codon|ENSG00000064726|stop_codon|NA|stop_codon (ssRNA)
RNA: GGGAGUUCUACAGUCCGACGAUCUACCGGCUUUAGUUGUGAUGGGACAGCUAACACAUUCAGGGUCAUGUUCAAGGAACCCAUAGAGAUCCUGCCCAAUGUGUGCUACACAGCAUGUGCAACACUCAAAGGUCCAGAUUCCCACAACAGAGGAUUGAGCAUCA
B3: chr1:62648186:62648303:-|CDS|ENSG00000116641|unk|total|mutant (ssRNA)
RNA: GGGAGUUCUACAGUCCGACGAUCGAUGACCUUAAAAGACGUUCAAUGUCAACCGAUGAUACCCCAAGGGGCCGCUGGGCCUGCCGUAUCUUUGACUUGAAAAAUUCACUUCCUGAUGCUUUGCUUCCCAAUUUACUUGAUCGACAACAGAGGAUUGAGCAUCA
B4: chr6:37331633:37331734:+|3pUTR|ENSG00000065491|unk|FALSE|unique (ssRNA)
RNA: GGGAGUUCUACAGUCCGACGAUCCCGUUCCCCUUCUGCCCCAGUCUGAGCCAGUGAGGGGUAGCUUUUUAAAACCAUUAUUCUAGAUGGAGGAGGCACUGAUGCUUGUAACUCUGGAAAGAGGCCUACACCCAAGGGCUAGGACAACAGAGGAUUGAGCAUCA
B5: chr19:40393765:40398556:-|three_prime_utr|ENSG00000105227|control|control|control (ssRNA)
RNA: GGGAGUUCUACAGUCCGACGAUCCCAGCCCAGGGCCCUCACCCACCUCGGAGAGGCGUCCCCACCAUCGGAUCCAGGCUUGCUAGGGGUCCUGAACCAGGCUACUUCGAACCAGGAAAGCCAGAUUCCAGCCUGAGUGCUGGCCAACAGAGGAUUGAGCAUCA
B6: chr16:30193532:30193793:-|CDS|ENSG00000169627|control|control|control (ssRNA)
RNA: GGGAGUUCUACAGUCCGACGAUCGCCUUAGUAAGGGCGGAAGUGAGUUUUCCAGCGGAAGUGGCUCCUGUAAGGCAGCAAGGUAGCGUGGCCGGCGCCCGAGCUGGGGUUGUGUCCCUGCUGGGCUGCCGUUCCAGCUGGACUCAACAGAGGAUUGAGCAUCA
B7: chr7:77639488:77639589:+|3pUTR|ENSG00000127947|msi1|total|mutant (ssRNA)
RNA: GGGAGUUCUACAGUCCGACGAUCAGUAUUAUUGCCUUAAUGUCUCUUAACCCUGUUACACGCUGCUUGCCGACAUGUUAAUACCGUAAUACCUUUAUGAUAUAUUGAGUUUAAGGACUACUCUUUUUCUGUUUUAUCAUGUAUCAACAGAGGAUUGAGCAUCA
B8: chr6:4954605:4954706:+|3pUTR|ENSG00000153046|msi1|FALSE|bound_elsewhere (ssRNA)
RNA: GGGAGUUCUACAGUCCGACGAUCGGAUAAAUACUUCUGAUGAAAAAUCCGCUGAGGAGCAUACCCCAAACCAGACAUAUGCUUAGGAUUCAUGCUGAGAUAUCAAUUGGUUUCCCCUUCUUUUUAAAAUACGUCCAGUUCUUACAACAGAGGAUUGAGCAUCA
B9: chr8:116643852:116643953:-|3pUTR|ENSG00000147677|unk|total|mutant (ssRNA)
RNA: GGGAGUUCUACAGUCCGACGAUCUGUUGUGAAUGAGGAAUCCGGAAUCCGGAGAAUGGCCGUACAUUGGGAAAAACAUAUUUCCGUAAUUUUUAUAUUUUAAAGAUAAUCACAGAUUUUGCUGUUUGUGCAUCACCAAAAUCACAACAGAGGAUUGAGCAUCA
B10: chr2:159230815:159230918:+|CDS|ENSG00000115183|unk|total|mutant (ssRNA)
RNA: GGGAGUUCUACAGUCCGACGAUCAACCUGUUCUGUUUCUACCCUGAGUGCAAGUGUCCACAAUGGGGCACAAGUGAAGGAGCCCGAAGAAAGCAAGUGCCAAAUUCCAGUCCACUCUCAAGAGAACAGGAUAACUAAGACUGUCAACAGAGGAUUGAGCAUCA
B11: chr17:59607285:59607386:+|3pUTR|ENSG00000108406|unk|FALSE|unique (ssRNA)
RNA: GGGAGUUCUACAGUCCGACGAUCUAAAUCAAAGCUCAUCAGUUCCCAUAAAUGCAGUUGUCAAAGAAAAGAUUUGGUUGCCAUAGUCAUAAGCAAUGAUACAUGAAACCAAUGAAAGACAGUACAUGUAAUAAUAUUUUCCUCCAACAGAGGAUUGAGCAUCA
B12: chr12:85803847:85803948:-|3pUTR|ENSG00000198774|unk|total|mutant (ssRNA)
RNA: GGGAGUUCUACAGUCCGACGAUCCCAAACCCAUGUUCAUUCACUGAGUGAGGUACCGUGUGGGUUACAGAGAAAAUCAGUCACCGUGUUAUUUGUUUAUGUCCUAUCUACAAAAGUUGCAAUGAUGGAAUUUGGAACCCUUCUCAACAGAGGAUUGAGCAUCA
B13: ENSG00000180263:stop:overlap|stop_codon|ENSG00000180263|stop_codon|NA|stop_codon (ssRNA)
RNA: GGGAGUUCUACAGUCCGACGAUCCAGAGGAUGCUCAUUCGGCUCAGAAGUGGAUAGAAGCAUUUCAGGAAGGCACAAUAUUGUAGCAGUAUUGGUUUCAUCUCUUCUGUGAUUCCAAAGAGGUGGAAUUUCAUCAGAAUGGAGCAACAGAGGAUUGAGCAUCA
B14: chr13:20086215:20086316:+|3pUTR|ENSG00000121741|unk|total|mutant (ssRNA)
RNA: GGGAGUUCUACAGUCCGACGAUCUGGUUUCCGGAUACUUAACAAAUACAUUCAAAUUCUUUUUUUAUUAUUAUUUAUUUGAUCCGGUAUGUUUGUAACUUUUUACAUUACAGAAUAUGAAUGAGAAUGUGCCAUGUAUAAUUUCAACAGAGGAUUGAGCAUCA
B15: ENSG00000144224:stop:overlap|stop_codon|ENSG00000144224|stop_codon|NA|stop_codon (ssRNA)
RNA: GGGAGUUCUACAGUCCGACGAUCCUCAAGAUGAUGGUGAAGAUGAAAACAACACUUGGAAUGGAAAUUCCACUCAACAGAUGUAGUGUGACAAGUAUAAUAUGUGCAAUAAUCAUUGUUUCUCUUAUGAUUUAAUUCAACUAACAACAGAGGAUUGAGCAUCA
B16: chr8:6811200:6812339:-|CDS|ENSG00000275591|control|control|control (ssRNA)
RNA: GGGAGUUCUACAGUCCGACGAUCAUGUAGAGGCUUCUGCCCCAGUGCAGGCUUCCCUGGAAGAACCCUCAGUAUCUCAGAGCUAGAGGAGCCGCUGGAGCCCAAAAGGGAGCUAAGUCACCAUGCAGCUGUUGGUGUGUGGGUCAACAGAGGAUUGAGCAUCA
B17: chr7:27141837:27142085:-|CDS|ENSG00000106004|control|control|control (ssRNA)
RNA: GGGAGUUCUACAGUCCGACGAUCGGAGCUGGAGAAGGAGUUCCACUUCAACCGUUACCUGACCCGCAGAAGGAGGAUUGAAAUAGCACAUGCUCUUUGCCUCUCCGAGAGACAAAUUAAAAUCUGGUUCCAAAACCGGAGAAUCAACAGAGGAUUGAGCAUCA
B18: chrX:101413019:101413185:+|CDS|ENSG00000126945|unk|total|mutant (ssRNA)
RNA: GGGAGUUCUACAGUCCGACGAUCGGAGCUCUUCUUAAAUUCUACUGCAGGAACAAGUGGGGGUGCUUACGAUCACAGCUAUGCCGAACUUUUUUUGAAUUCUACAGCAGGGGCAAGUGGUGGCGCUUAUGGCCGCCAAAUGAUCAACAGAGGAUUGAGCAUCA
B19: chr5:134606522:134606623:-|3pUTR|ENSG00000152700|msi1_unk|total|mutant (ssRNA)
RNA: GGGAGUUCUACAGUCCGACGAUCAACUAUAAACCAUAUUUAAAAGCUCAUCAUGUUAAAUUUUUUAUGUACUUUUCUGGAACCCGUUUUUAAAUUUCCGAUUAUAUGUCCACCUAUCUUAAGUGUACAGUUAAUAAUCCGCUUCAACAGAGGAUUGAGCAUCA
B20: chr2:159433012:159433119:-|CDS|ENSG00000123636|unk|total|mutant (ssRNA)
RNA: GGGAGUUCUACAGUCCGACGAUCGCACUUACUACCAAAACUAAAAUGCAGAGCAAGAUUAAUGAAAACAUUGCUGCUGCAAGCCGCACCCCUUUUUCCUCACCUGUAAAUCUGAGUACAAGUGGGAGAAGAACCCCUGGCAAUCAACAGAGGAUUGAGCAUCA
B21: ENSG00000120539:stop:overlap|stop_codon|ENSG00000120539|stop_codon|NA|stop_codon (ssRNA)
RNA: GGGAGUUCUACAGUCCGACGAUCCCUCCUAUUUUGAAGCCAGGAAUACUGCUCAGCACCUGACUGUAUCUGGAUUUAGUCUGUAGCACAAAAAUUUUCCUUUUAGUCUAGCCUUGUGUUAUAGAAUGAACUUGCAUAAUUAUACAACAGAGGAUUGAGCAUCA
B22: chr4:41955281:41955382:+|3pUTR|ENSG00000109133|msi1|total|mutant (ssRNA)
RNA: GGGAGUUCUACAGUCCGACGAUCGCCGGGGGAGGAGUUGUGGGGGAAUAAUGUGCAUUUCAGUCUCAACGCACCGAUAAAUUCCGGGGAAUUGGAUGUAUUAUUCAACUUUGAUUUGGGUUGUAAAAUGUGUUAAAUCCUGUUCAACAGAGGAUUGAGCAUCA

Biological target: MSI1 full-length (mouse, UniProt Q61474 1-362)
Assay: nsRBNS (natural sequence RNA bind-n-seq); RBNS binding buffer (assumed for nsRBNS): 25 mM Tris pH 7.5, 150 mM KCl, 3 mM MgCl2, 0.01% Triton X-100, 500 ug/ml BSA, 20 U/ml SUPERase-In, 4 C; UNK is unkempt and MSI1 is Musashi-1; names of the RNAs are library labels; protein concentration not given here; high values mean tight binding

Chain of UniProt Q61474 (Q61474 whole entry): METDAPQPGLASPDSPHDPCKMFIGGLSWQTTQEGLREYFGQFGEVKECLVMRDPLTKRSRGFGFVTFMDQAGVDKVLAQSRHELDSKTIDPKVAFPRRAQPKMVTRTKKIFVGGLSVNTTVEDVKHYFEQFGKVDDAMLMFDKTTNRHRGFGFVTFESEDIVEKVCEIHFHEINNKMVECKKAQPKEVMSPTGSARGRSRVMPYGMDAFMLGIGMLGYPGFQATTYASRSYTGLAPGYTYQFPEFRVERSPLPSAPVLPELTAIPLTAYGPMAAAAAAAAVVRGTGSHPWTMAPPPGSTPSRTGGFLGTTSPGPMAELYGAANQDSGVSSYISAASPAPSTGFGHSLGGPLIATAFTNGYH

Binder	binding signal [enrichment R]
B1	0.199
B2	0.464
B3	0.394
B4	0.844
B5	0.333
B6	0.62
B7	0.692
B8	0.393
B9	0.427
B10	0.395
B11	0.565
B12	0.248
B13	1.27
B14	2.05
B15	0.498
B16	0.573
B17	0.366
B18	0.539
B19	5.71
B20	0.379
B21	0.952
B22	0.597
